One series concerns MC38 tumor. The series can be described thus: Anti-tumor activity and survival in MC38 mouse tumor model. The class given is in vivo. An excerpt:
(§1) A. Treatment with ADC HE-S2, single administration of anti-PD-L1 antibody, D18, or anti-PD-L1 THIOMAB, and anti-PD-L1 antibody/D18 combined administration for inhibitory activity against mouse MC38 tumor growth. B. Whole animal survival study. The ordinate of the curve represents the percentage of tumor-bearing mice that remained alive after different days, and the abscissa thereof represents the number of experimental days. C. Treatment with ADC HE-S2, single administration of anti-PD-L1 antibody, D18, or anti-PD-L1 THIOMAB, and anti-PD-L1 antibody/D18 combined administration for inhibitory activity against mouse MC38 tumor growth. Student's t test was used to compare significant differences between the groups, and p<0.001 is represented by ***.
To verify the anti-cancer activity of ADC HE-S2, the inventors first made a mouse model with MC38. After the tumor was loaded, a visible tumor could be observed on the mouse surface for about one week. When the mean tumor tissue volume of the mice reached 100 mm^3, the mice were randomly grouped as follows according to the final type of drug administered: IgG isotype control antibody group (abbreviated as IgG), anti-PD-L1 antibody group (anti-PD-L1), anti-PD-L1 THIOMAB group (Thiomab), D18 group (D18), D18/anti-PD-L1 antibody combination treatment group (anti-PD-L1 & D18), and ADC HE-S2 group (ADC HE-S2), with 7-8 mice per group. The IgG isotype control antibody group, the anti-PD-L1 antibody (i.e., avelumab as described in Example 2) group, and the anti-PD-L1 THIOMAB (i.e., mutant antibody prepared in Example 2) group were administered twice a week via intraperitoneal injection of 150 μg per mouse for each time. The D18 group was administered twice a week via intraperitoneal injection of 25 μg per mouse for each time. […]

In series [1] the target is T1, PD-L1 on MC38 cell surfaces (Mus musculus, UniProt Q9EP73).
T1 construct: endogenous in cells; host or cells: MC38 cells
As to the kind of experiment: FACS detection of antigen-binding capacity on PD-L1 positive MC38 cells (FITC secondary antibody). As to the method:
MC38 cells were treated with anti-PD-L1 antibody, anti-PD-L1 THIOMAB and ADC HE-S2, and then stained with FITC-labeled goat anti-human secondary antibody; the FITC signal intensity on MC38 surfaces was analyzed by FACS technique detection. A. The histograms of different colors represent, from top to bottom, the fluorescence signals measured for the negative control (NC) group, the secondary antibody group, the anti-PD-L1 antibody group, the anti-PD-L1 THIOMAB group, and the ADC HE-S2 group, respectively. B. Mean fluorescence intensity (MFI) measured after treatment with different antibody-based drugs on MC38. NC group: the negative control only added with the isotype antibody, with no secondary antibody added for staining; secondary antibody group: the control group added with the isotype antibody and stained with fluorescent secondary antibody. […]
With PD-L1 positive MC38 as a platform, the inventors verified whether ADC HE-S2 and the gene-modified anti-PD-L1 THIOMAB retained the original antibody-antigen binding capacity by using a fluorescence activated cell sorting (FACS) technique. […] The stained MC38 cells were analyzed on a BD FACSAria™ III flow cytometer, and the strength of FITC fluorescence signals on MC38 cells treated with different antibody-based drugs was detected and compared, so as to characterize the affinity of ADC, THIOMAB and antibodies to PD-L1.

Series [2] can be described thus: Effect of drug treatment on body weight of healthy mice. The class given is in vivo, mouse. On the procedure: Mice were treated with ADC HE-S2, anti-PD-L1 antibody+D18 in combination, anti-PD-L1 antibody alone, D18 alone, and isotype IgG, and their body weight variations were recorded. The time of administration for each drug is indicated by the arrow. Student's t test was used to compare significance differences between groups, wherein p<0.05 is represented by *. p<0.01 is represented by **, and no significance difference is represented by ns.
Then, the inventors examined the effect of each group of drug treatment on the body weight of mice in a mouse model to determine the toxic and side effects of the drugs used, and the results are shown in FIG. 17. Healthy mice were divided into an ADC group, an anti-PD-L1 antibody+D18 group, an anti-PD-L1 antibody group, a D18 group and an IgG group according to the administration, with 5 mice per group. The mode and dose of administration for each group of mice were the same as those in the mouse tumor model experiment: in the ADC group, ADC HE-S2 was dosed once a week, and the anti-PD-L1 antibody was […], 150 μg for each time; D18 was dosed once a week, 25 μg for each time; the anti-PD-L1 antibody and the IgG isotype antibody were dosed twice a week, 150 μg for each time.

In another series the test system is B16 melanoma. As to the kind of experiment: Anti-tumor activity in B16 melanoma mouse model. The class given is in vivo. Conditions: B16 mice.
Excerpt: as §1
B16 melanoma is a tumor with low PD-L1 level and certain drug resistance to PD-1/PD-L1 blocking treatment. As a result, as expected by the inventors, the inhibitory effect of each drug on B16 melanoma was reduced relative to the MC38 tumor.
Dosage: Antibody drugs, administered 150 μg per mouse for each time, and D18, administered 25 μg per mouse for each time. - means no administration on the day. * Only mice with MC38 tumor model were allowed to be administered until the 24th day, and mice with B16 tumor model were no longer administered after the 21st day.

T1 sequence (Q9EP73 19-290): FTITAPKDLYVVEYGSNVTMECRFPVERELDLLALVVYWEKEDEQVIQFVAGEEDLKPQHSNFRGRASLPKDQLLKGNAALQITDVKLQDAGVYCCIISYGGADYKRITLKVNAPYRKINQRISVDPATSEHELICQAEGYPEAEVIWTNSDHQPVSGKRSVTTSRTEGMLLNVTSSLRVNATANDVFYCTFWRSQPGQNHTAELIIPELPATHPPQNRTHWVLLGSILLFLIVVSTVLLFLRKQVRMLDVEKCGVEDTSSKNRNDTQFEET

B1: ADC HE-S2 (conjugate)
heavy: EVQLLESGGGLVQPGGSLRLSCAASGFTFSSYIMMWVRQAPGKGLEWVSSIYPSGGITFYADTVKGRFTISRDNSKNTLYLQMNSLRAEDTAVYYCARIKLGTVTTVNYWGQGTLVTVSS[sequence of human IgG1 constant region omitted]
light: QSALTQPASVSGSPGQSITISCTGTSSDVGGYNYVSWYQQHPGKAPKLMIYDVSNRPSGVSNRFSGSKSGNTASLTISGLQAEDEADYYCSSYTSSSTRVFGTGTKVTVLGQPKANPTVTLFPPSSEELQANKATLVCLISDFYPGAVTVAWKADGSPVKAGVETTKPSKQSNNKYAASSYLSLTPEQWKSHRSYSCQVTHEGSTCEKTVAPTECS
For the molecule B1, in the series with MC38 tumor (MC38 mice, i.p., antibody drugs 150 μg per mouse, D18 25 μg per mouse, schedule Table 1), the “inhibitory activity against MC38 tumor growth” value was “significantly superior to that of the combination treatment group”. Further, in the series on MC38 tumor (day 70), the “tumors in the last alive mice” value is reported as “barely detectable”. Moreover, the “survival rate of mice” value in the series on MC38 tumor (until day 70) was 6/8. Also, the “MFI compared with the natural anti-PD-L1 antibody (Student's t test)” value in series [1] is given as “no significant difference”. Also, the “final change in body weight compared with the control group” value in series [2] (after administration) is listed as “not significantly different from that in the control group”. In addition, the “body weight change of the mice after administration” value in series [2] (antibody drugs 150 μg, D18 25 μg per dose) was “certain drop in body weight”. In addition, the “body weight loss relative to the administration of D18 alone” value in series [2] (p<0.05) is listed as “significantly less than that of the D18 group”. For the same molecule, the “inhibitory effect on B16 melanoma” value in the series with B16 melanoma (i.p., antibody drugs 150 μg, D18 25 μg per mouse, dosing to day 21) is listed as “some tumor inhibitory effect”. Moreover, the “growth rate of B16 tumors compared to the combination treatment” value with B16 melanoma (p<0.05) is recorded as “significantly slow down”.

(Values after patent US20240252670A1, “ANTIBODY DRUG CONJUGATE, PREPARATION METHOD THEREFOR AND APPLICATION THEREOF” (TSINGHUA UNIVERSITY, priority 2021, published 2024).)
